Test results as given in PubChem BioAssay AID1159614 (National Center for Advancing Translational Sciences (NCATS), 2016).
Among all 45,000 compounds or so, about 65 (0.1%) were called active. Calls follow the shape of the dose curve; as a rule, active = well fitted activation curve with a large enough effect; inconclusive = small, poorly fitted or top-dose-only effect; inactive = no such curve, though single readings can be large or run the other way. The list shows a part of the results.

target: Galactocerebrosidase (Homo sapiens) (UniProt P54803); test: A Novel Cell-Based Assay to Identify Small Molecules for B -Galactocerebrosidase; settings: 145M-Twi-hGALC-G270D cells (Twitcher mouse brain line with human GALC G270D), HMU-beta-Gal fluorescence, 48 h; series mostly up to 57.5 µM; activation: at the top concentration; also: 0% is about no effect; nearly all actives have a fitted effect of over 65% in size
In short: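 Mutant human GALC (G270D), stably expressed in a Twitcher mouse brain cell line lacking endogenous GALC, is measured in live-treated cells via 6-hexadecanoylamino-4-methylumbelliferyl-β-galactoside hydrolysis (0.1 mM final, pH 5.2) with fluorescent detection.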

UniProt P54803, sequence (P54803 whole entry, looked up): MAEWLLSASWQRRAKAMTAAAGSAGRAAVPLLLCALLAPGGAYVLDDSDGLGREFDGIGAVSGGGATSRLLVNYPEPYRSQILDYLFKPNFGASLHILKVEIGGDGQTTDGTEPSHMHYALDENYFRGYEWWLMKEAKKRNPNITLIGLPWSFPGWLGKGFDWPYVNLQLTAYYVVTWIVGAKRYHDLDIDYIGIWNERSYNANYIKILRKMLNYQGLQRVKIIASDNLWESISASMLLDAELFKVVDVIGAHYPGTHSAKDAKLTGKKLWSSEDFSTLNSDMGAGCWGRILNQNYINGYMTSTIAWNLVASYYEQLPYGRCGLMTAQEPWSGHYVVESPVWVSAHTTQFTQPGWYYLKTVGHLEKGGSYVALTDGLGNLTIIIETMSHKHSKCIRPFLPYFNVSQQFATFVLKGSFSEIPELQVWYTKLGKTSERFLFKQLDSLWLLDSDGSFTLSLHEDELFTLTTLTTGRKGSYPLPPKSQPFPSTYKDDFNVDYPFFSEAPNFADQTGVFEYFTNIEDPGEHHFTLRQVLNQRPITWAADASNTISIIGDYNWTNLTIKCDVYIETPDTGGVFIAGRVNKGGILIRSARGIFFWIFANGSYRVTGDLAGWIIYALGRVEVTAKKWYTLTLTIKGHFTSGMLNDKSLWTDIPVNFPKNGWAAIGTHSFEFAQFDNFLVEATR

activation, inactive:
CC(=O)Nc1nonc1-c1nnc(SCC(=O)Nc2ccc(C)c(Cl)c2)n1-c1ccccc1 -4.92%, COc1ccc(-n2c(=O)c3ccccc3n(Cc3ccccc3C)c2=O)c(OC)c1 -17.2%, Cc1ccc(-n2nc(CO)c(C(=O)NCCCc3ccccc3)n2)cc1 -9.16%, CCc1ccccc1Nc1nc2cc(Cl)c(Cl)cc2nc1-n1nc(C)cc1C -3.81%, CCOc1ccc(C(=O)c2cnc3ccc(Cl)cc3c2S(=O)(=O)c2ccc(C)cc2)cc1 -26.5%, CCOc1ccc(CNC(=O)C2CCCN(S(=O)(=O)N(C)c3ccc(F)cc3)C2)cc1OC (stereo not given) -13.5%, Cc1ccc(-n2ncc3c(Nc4ccccc4C)ncnc32)cc1 -7.5%, COc1cccc(Cn2c(NCc3ccc(C)cc3)nc3c2c(=O)n(C)c(=O)n3C)c1 -18.9%, CC(=O)Nc1ccc(NS(=O)(=O)c2c(C)nc3sccn3c2=O)cc1 -10.5%, CCOC(=O)c1cnc2c(ccc3ccccc32)c1Nc1ccc(Cl)cc1 -15.9%, CC[C@]12CCCN3CCc4c(n(c5ccccc45)[C@@](O)(C(=O)OC)C1)[C@@H]32 -9.09%, CC(=O)c1ccc(NC(=O)c2ccc(-c3nc(COc4ccc(C)cc4)c(C)o3)cc2)cc1 15.5%, COc1ccc(-c2cn3nc(N4CCCC(C(=O)NCc5ccccc5OC)C4)sc3n2)cc1 (stereo not given) -10.5%, Cc1nn(-c2ccc3nnc(C)n3n2)c(C)c1CCC(=O)Nc1ccc(OC(F)(F)F)cc1 -14.8%, COC(=O)c1cc(-c2ccc(OC)c(OC)c2)c2c(=O)[nH]c(=O)n(C)c2n1 1.5%, CCC(=O)N1CCc2cc(S(=O)(=O)NC(CC(C)C)C(=O)NCc3ccc(F)cc3)ccc21 (stereo not given) -26.7%, C[N+]1(CC2COC(c3ccccc3)(C3CCCCC3)O2)CCCCC1 (stereo not given) -15.6%, O=C(CCn1c(=O)c2sccc2n(Cc2cccc(F)c2)c1=O)NCc1ccc2c(c1)OCO2 8.98%, Cc1ccc(S(=O)(=O)c2nc(-c3ccco3)oc2SCC(=O)Nc2ccc(F)cc2)cc1 -30.7%, Cc1ccc(NC(=O)Cn2c(=O)n(Cc3nc(C)no3)c(=O)c3cc4c(cc32)OCO4)c(Cl)c1 -14.5%, Cc1cccc(C)c1NC(=O)Cn1c(=O)n(Cc2ccco2)c(=O)c2ccc(C(=O)NC3CCCC3)cc21 -17.4%, O=C(NCCc1nc2ccccc2n1CCCOc1ccc(Cl)cc1)C1CCCCC1 -20.1%, O=C(Nc1c2c(nn1-c1ccc(Cl)cc1)CS(=O)(=O)C2)c1ccccc1F -24%, Cc1nn2c(C)c(C(=O)NCC(C)c3ccccc3)cnc2c1-c1ccccc1 (stereo not given) -11.1%, COc1ccc(C2NC(=O)N(C)C3=C2C(=O)N(c2ccc(F)cc2)C3)cc1 (stereo not given) -22.1%, Fc1ccc(Cn2c(-c3cccc(Br)c3)nc3ccccc32)cc1 -3.8%, CCOc1ccc(CCNC(=O)Cn2nc(CC)n3c(cc4sccc43)c2=O)cc1 -6.54%, CCOc1cc(C2c3c(-c4ccccc4O)n[nH]c3C(=O)N2Cc2cccnc2)ccc1O (stereo not given) -6.66%, CSc1ccc(/C=C2/C(C)=C(CC(=O)O)c3cc(F)ccc32)cc1 -13.6%, Cc1ccc(NC(=O)c2sc(-n3nc(C)c(Cc4ccc5c(c4)OCO5)c3C)nc2C)cc1C -9.72%, CCC(C(=O)NCc1ccccc1Cl)n1nc(C)c2sc3ccccc3c2c1=O (stereo not given) -12.2%, Cc1cccc(NC(=O)CSc2nccn2-c2cccc(Cl)c2)c1C -13.1%, COc1ccc(C(=O)Nc2noc3ccccc23)cc1 -0.73%, O=c1cc(-c2ccccc2)n2c(SCc3cccc([N+](=O)[O-])c3)nnc2[nH]1 -34.9%, O=C(CCCn1c(=O)c2sccc2n(Cc2cccc(Cl)c2)c1=O)NCc1ccc2c(c1)OCO2 -24.5%, CCOC(=O)CN1C(=O)c2cccnc2Oc2ccccc21 -8.06%, CNS(=O)(=O)c1cn(CC(=O)N2CCN(c3cc(C)ccc3C)CC2)cc1S(=O)(=O)NC -16.3%, Cc1cc(C)cc(NC(=O)CSCc2cc(=O)c3ccc(C)c(C)c3[nH]2)c1 -8.65%, CCCCN(c1ccccc1)S(=O)(=O)c1ccc2c(c1)CC(C)N2C(=O)C1CC1 (stereo not given) -19.4%, CCc1ccccc1Nc1nc2ccccc2n2cnnc12 -3.34%, COc1ccc(CCNC(=O)CCn2c(=O)c3cccn3c3cccnc32)cc1OC 4.82%, COc1ccc(Cl)cc1NC(=O)CSc1nc(-c2ccco2)cc(C(F)(F)F)n1 -13.2%, CCOc1cc(C(=O)N2CCC(c3ccncc3)CC2)cc(OCC)c1OCC -8.19%, CCOc1ccc(NC(=O)CN2CCN(CC(=O)Nc3ccccc3OCC)CC2)cc1 -8.85%, CCC(C)(C)c1ccc(CC(C)CN2C[C@@H](C)O[C@@H](C)C2)cc1 (stereo not given in full) -24.4%, NC(=O)C1CCN(C(=O)Cn2c(-c3cccs3)cc3ccccc32)CC1 -12.5%, Cc1cccc(C)c1OC(=O)CSc1nnc(-c2cccs2)o1 1.13%, COc1ccc(-c2oc3ncn4nc(-c5ccccc5C)nc4c3c2-c2ccc(OC)cc2)cc1 -14.2%, CC1CN(S(=O)(=O)c2ccc3c(c2)NC(=O)CC(=O)N3)c2ccccc2O1 (stereo not given) -11.5%, CCOC(=O)c1ccc(NC(=O)COC(=O)c2cn(CC)c3nc(C)ccc3c2=O)cc1 9.1%, COc1ccccc1-n1nc(-c2ccccc2)c2cnc3cc(C(F)(F)F)ccc3c21 -1.29%, Cc1ccc(C)c(CN2C(=O)c3ccccc3S(=O)(=O)c3ccc(C(=O)N4CCN(c5ccccc5F)CC4)cc32)c1 -13.9%, CCOC(=O)c1ccc(C#Cc2ccc3c(c2)C(C)(C)CCS3)nc1 -18.5%, COc1ccc(CNC(=O)CCc2nnc3n(CC(C)C)c(=O)c4ccccc4n23)cc1 -2.89%, COc1cccc(NC(=O)Cn2c(=O)n(CCCCC(=O)NCCc3ccccc3)c(=O)c3ccccc32)c1 -13.1%, CCOC(=O)C1=C(CN2CCN(c3cc(C)ccc3C)CC2)NC(=O)NC1c1ccc(Cl)cc1 (stereo not given) -13.9%, CCS(=O)(=O)N1CCc2cc(C(=O)Nc3cc(C(F)(F)F)ccc3Cl)ccc21 -11.7%, COc1ccc(C)cc1NS(=O)(=O)c1ccc2[nH]c(=O)c(=O)[nH]c2c1 -11.8%, CCn1ccc2cc(S(=O)(=O)N3CCCN(C(=O)NCCOC)CC3)ccc21 -4.51%, O=C(NCc1cccnc1)C(=O)NCC(c1cccnc1)N1CCN(c2ccccc2)CC1 (stereo not given) -1.21%, CCc1cc2c(cc3c(=O)n(CC(=O)N4CCN(c5cc(Cl)ccc5C)CC4)nc(CC)n32)s1 -11.4%, CC(C)CCNc1nc2c(S(=O)(=O)c3ccc(Br)cc3)nnn2c2ccsc12 11.8%, CCc1ccc(-n2nc(C)c3c(C)cc(=O)n(CC(=O)NCc4ccc(C)cc4)c32)cc1 -16.3%, CCc1ccc(NC(=O)CSc2nc(C)cc(COC)c2C#N)cc1 -18.6%, CCOc1ccc(NC(=O)Cn2c(=O)n(CC3CCCO3)c(=O)c3ccccc32)cc1 (stereo not given) -3.24%, CCOc1ccc2nc(N3CCCC(C(=O)NCc4ccccc4Cl)C3)sc2c1 (stereo not given) -7.99%, COc1ccc2cc(C(=O)NCc3ccc4c(c3)CCN4C(=O)c3ccc(C)cc3)[nH]c2c1 -6.82%, C=Cc1ccc(Cn2c(=O)n(-c3ccc(C)cc3)c(=O)c3c2c2cc(OC)ccc2n3C)cc1 -17.7%, O=C(NCc1ccccc1)C1CCN(C(=O)c2cnn(-c3ccccc3)c2-n2cccc2)CC1 2.98%, CCOC(=O)c1cccc(NC(c2nnc(-c3ccccc3)o2)c2ccccc2F)c1 (stereo not given) -9.77%, Cc1ccc(C)c(N2CCN(c3nc4ccccc4c4nc(-c5cccnc5)nn34)CC2)c1 -16%, NC(N)=NCCN1CCCCCCC1 -17.2% [at 0.46 µM], CC(C)C(=O)Nc1cccc(NC2=NS(=O)(=O)c3ccccc32)c1 -12.5%, CCc1ccc(C2=CC(c3cccc(Br)c3)n3nnnc3N2)cc1 (stereo not given) -14.9%, Cc1ccc2c(c1)c(=O)c(C(=O)c1ccncc1)cn2CC(=O)Nc1ccccc1Cl -7.21%, Cc1ccc(C)c(Cn2c(C)c(CNCc3ccc(F)cc3)c(C(=O)O)c2C)c1 -11.8%, COc1ccc(CCNC(=O)CCCCCn2c(=O)[nH]c3cc(OC)c(OC)cc3c2=O)cc1OC -10%, CC1=C(C(=O)Nc2ccc(C)cc2C)C(c2cccn2C)n2ncnc2N1 (stereo not given) -8.62%, CC(=O)Nc1nnc(SCc2cc(=O)c3cccc(C)c3[nH]2)s1 -11.2%, COc1ccc(NC(=O)CSc2nc(O)c(C/C=C/c3ccccc3)c(=O)[nH]2)cc1 -15.4%, Cc1ccc(CNC(=O)C2CCCN(c3nnc(-n4c(C)ccc4C)s3)C2)cc1 (stereo not given) 0.0294%, CCSc1nc(-c2ccc(Cl)cc2)nc2c1Cc1c(CO)cnc(C)c1O2 -2.14%, COc1ccccc1CNC(=O)CCC1N=C2c3ccccc3N=C(SCc3ccccc3Cl)N2C1=O (stereo not given) -1.27%, CC1=C(c2ccc(Cl)cc2)S(=O)(=O)N=C1N1CCN(c2cccc(C(F)(F)F)c2)CC1 -0.0591%, COc1ccc(-c2cc(C(F)(F)F)n3nc(C(=O)Nc4cccc(C(F)(F)F)c4)c(Br)c3n2)cc1 -2.02%, CCOC(=O)c1sc2ccccc2c1S(=O)(=O)NCc1ccc(F)cc1 -8.32%, COC(=O)c1cnc(N2CCN(c3ccccc3OC)CC2)c2ccccc12 -11.1%, CCOC(=O)c1ccc(NC(=O)CCn2cnnn2)cc1 -12.4%, Cc1ccc(NC(c2nnc(-c3ccccc3)o2)c2ccccc2F)c([N+](=O)[O-])c1 (stereo not given) -3.48%, Cc1ccc(-n2nnnc2CNC(=O)c2ccccc2F)cc1C -13.3%, CCN1CCCC1CNC(=O)c1cc(S(=O)(=O)CC)c(N)cc1OC (stereo not given) -6.23%, Nc1nc(N)nc(-c2cc(Cl)ccc2Cl)n1 -5.23%, O=C(NCc1ccccc1Cl)c1ccc(CSCc2cccc(F)c2)o1 5.69%, O=C(NCc1ccc(Cl)cc1)c1ccc2c(c1)NC(=O)C(CS(=O)(=O)Cc1ccccc1Cl)N2 (stereo not given) -27.7%, CCn1c(=O)c2cc(C(=O)NCCCN(C)Cc3ccccc3)sc2c2ccccc21 -6.95%
